{
  "source": "paper PMC3056899",
  "about": "(Structure (London, England : 1993), 2011)",
  "binders": {"B1": {"name": "CFIm25ΔN21 (methylated) (domain or fragment)", "chain": "not shown", "modifications": "reductive methylation"}},
  "key": {"[1]": {"target": "the molecule itself", "assay": "crystal structure"}, "[2]": {"target": "T1, CFIm68 N13-235 (methylated) (human, UniProt Q16630 13-235, reductive methylation)", "T1 sequence (looked up)": "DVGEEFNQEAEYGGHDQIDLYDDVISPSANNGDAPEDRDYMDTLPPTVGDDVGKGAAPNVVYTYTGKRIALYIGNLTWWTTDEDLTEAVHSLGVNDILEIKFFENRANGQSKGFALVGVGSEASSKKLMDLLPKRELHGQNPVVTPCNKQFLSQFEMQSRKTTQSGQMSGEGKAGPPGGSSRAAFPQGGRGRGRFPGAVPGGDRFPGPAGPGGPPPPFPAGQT", "assay": "crystal structure"}},
  "data": [
    {"binder": "B1", "values": [
      {"measurement": "stoichiometry N", "setting": "[1]", "result": 2},
      {"measurement": "binding result", "setting": "[2]", "result": "binds"}
    ]}
  ]
}
